Measurements reported in the supplement of paper PMC12067230.
Single values of this set are uncertain.

Test: amyloid nucleation score relative to library mode (yeast Sup35 reporter selection) (log enrichment difference); higher = more amyloid nucleation; sequences are the first 22 residues of the Bri2 peptide extended by up to 12 random residues
Conditions: random library (experiment): 1;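 active = nucleation score significantly above 0 at FDR 0.05; inactive = not significantly above 0 or absent from output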
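Further: [psi-pin-] Saccharomyces cerevisiae expressing SupN fusions, induced by 100 µM Cu2SO4, selected 7 d at 30 °C without adenine and uracil, scored by deep sequencing of output versus input.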

Sequence	amyloid nucleation score
EASNCFAIRHFENKFAVETLICYSVFWLGMCRFR	inactive
EASNCFAIRHFENKFAVETLICHCGETEPWVRAG	3.99
EASNCFAIRHFENKFAVETLICWACRLVGEGSFE	inactive
EASNCFAIRHFENKFAVETLICVSYYGS	2.12
EASNCFAIRHFENKFAVETLICNIAMMAVVWVLG	4.26
EASNCFAIRHFENKFAVETLICLMGLPLLTRLLA	inactive
EASNCFAIRHFENKFAVETLICAAN	inactive
EASNCFAIRHFENKFAVETLICVSDPRAGFRPRI	2.52
EASNCFAIRHFENKFAVETLICGMRCMFIVVFDW	inactive
EASNCFAIRHFENKFAVETLICCVYQFRVGVMAV	2.29
EASNCFAIRHFENKFAVETLICLAKLYAGGDVRK	inactive
EASNCFAIRHFENKFAVETLICVSVTGAVTGLWW	2.37
EASNCFAIRHFENKFAVETLICCM	0.986
EASNCFAIRHFENKFAVETLICEAITELSRLREP	inactive
EASNCFAIRHFENKFAVETLICELGQNLR	inactive
EASNCFAIRHFENKFAVETLICYSTFTHRGDSML	2.92
EASNCFAIRHFENKFAVETLICWNYVRDPQCIAW	3.5
EASNCFAIRHFENKFAVETLICLVRCVDQKVCGC	inactive
EASNCFAIRHFENKFAVETLICAVWTVLRYGVNC	inactive
EASNCFAIRHFENKFAVETLICCTAVNNVCLGAV	inactive
EASNCFAIRHFENKFAVETLICLSAPRTNCSYPL	1.89
EASNCFAIRHFENKFAVETLICFGASRNNGCNRR	5.3

Same assay, conditions: random library (experiment): 2

Sequence	amyloid nucleation score
EASNCFAIRHFENKFAVETLICFSTMRLCVLRVC	inactive
EASNCFAIRHFENKFAVETLICRMLIRPCGVSAR	inactive
EASNCFAIRHFENKFAVETLICYYLPRMSRSVHL	inactive
EASNCFAIRHFENKFAVETLICMVKPHWECVRVG	inactive
EASNCFAIRHFENKFAVETLICASVFMFNSSCGP	8.57
EASNCFAIRHFENKFAVETLICVPNGNWNIFV	5.61
EASNCFAIRHFENKFAVETLICMPSHLWCFKYGG	6.88
EASNCFAIRHFENKFAVETLICPVGIFYVLYRVR	inactive
EASNCFAIRHFENKFAVETLICLSLSCYHKLVHI	inactive
EASNCFAIRHFENKFAVETLICESHWLNIATSDP	inactive
EASNCFAIRHFENKFAVETLICDFSKLP	0.163
EASNCFAIRHFENKFAVETLICLSSNVRF	4.25
EASNCFAIRHFENKFAVETLICFNQRCHTKDARC	4.74
EASNCFAIRHFENKFAVETLICILTYVFSVDCYD	inactive

Same assay, conditions: random library (experiment): 3

Sequence	amyloid nucleation score
EASNCFAIRHFENKFAVETLICRYQGV	1.41
EASNCFAIRHFENKFAVETLICNRKEYSWARCSM	2.88
EASNCFAIRHFENKFAVETLICQGMKVRQVANGR	inactive
EASNCFAIRHFENKFAVETLICKYPHEYWVSS	inactive
EASNCFAIRHFENKFAVETLICLGEFTDVTFEAL	2.78
EASNCFAIRHFENKFAVETLICNESESS	inactive
EASNCFAIRHFENKFAVETLICFNLFCLVQCRTY	inactive
EASNCFAIRHFENKFAVETLICFRLSSYLDDPAN	inactive
EASNCFAIRHFENKFAVETLICVIVRPFVWIAFG	inactive
EASNCFAIRHFENKFAVETLICRLHDLWCRGKNA	inactive
EASNCFAIRHFENKFAVETLICKSQWQARELGVV	inactive
